One assay has as its system HSkMC. Nature of the assay: cytotoxicity call (relative viability < 0.9). The conditions noted are these: 10 µM.
A further assay has as its system HepG2. Nature of the assay: cytotoxicity call (relative viability < 0.9). To be noted: 10 µM.
Another assay has as its system S. aureus RN4220. Nature of the assay: growth inhibition call (relative growth <= 0.2). To be noted: 50 µM.

Data on three molecules can be found in the antibiotic and cytotoxicity screens of Wong et al. (2023).

The list shows a part of the results.

Consider `Cc1ccc(S(=O)(=O)Nc2ccc3c(c2)C(=O)N([C@@H](C)CO)C[C@@H](C)[C@H](CN(C)Cc2ccncc2)OCCCC[C@H](C)O3)cc1`, for which the cytotoxicity call in the assay with HSkMC and in the assay with HepG2 was “inactive” throughout. Further, in the assay on S. aureus RN4220, the growth inhibition call is “inactive”.

In the case of `CCCCCCOC(=O)/N=C(/N)c1ccc(NCc2nc3cc(C(=O)N(CCC(=O)OCC)c4ccccn4)ccc3n2C)cc1`, the cytotoxicity call in the assay on HSkMC (human skeletal muscle cells) was “active”. The cytotoxicity call in the assay with HepG2 was “inactive”. In the assay with S. aureus RN4220, the growth inhibition call was “inactive”.

Turning to `Cc1noc(C)c1S(=O)(=O)N(C)C[C@@H]1OCCCC[C@H](C)Oc2ccc(NC(=O)Nc3cccc4ccccc34)cc2C(=O)N([C@H](C)CO)C[C@@H]1C`, the cytotoxicity call in the assay with HSkMC and with HepG2 was “inactive” throughout. Also, in the assay with S. aureus RN4220, the growth inhibition call is “inactive”.
